Out of some 44,000 compounds screened, about 340 (0.77%) were called active. Inconclusive results (about 5%) are left out. Calls follow the shape of the dose curve; as a rule, active = well fitted inhibition curve with a large enough effect; inconclusive = small, poorly fitted or top-dose-only effect; inactive = flat fitted curve, though single readings scatter. The list shows a part of the results.
Assay: Acumen qHTS Assay for Inhibitors of the mTORC1 Signaling Pathway in MEF (Tsc2-/-, p53-/-) Cells: Sytravon; also: nearly all actives have a fitted effect of over 50% in size;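 as to activity change, negative = inhibition: plate controls were DMSO for no effect and rapamycin for full effect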
Conditions: phospho-rpS6 immunofluorescence/PI, 24 h; series mostly up to 38.3 µM; activity change, negative = inhibition: at the top concentration
Method in brief: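 Plate MEFs (Tsc2-/-, p53-/-, empty vector) in DMEM/10% FBS; after 24 h add compound, incubate 24 h at 37 degree Celsius; fix in PFA/TX-100, block, stain phospho-rpS6 and 10 uM PI; scan at 488 nm; report % positive cells.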
Potency is read from the fitted curve at half-maximal effect.

Row | SMILES | activity change, negative = inhibition | Potency
1 | COC(=O)c1cc(S(=O)(=O)N2CCN(c3cccc(C)c3)C(C)C2)cn1C (configuration not stated) | inactive: -1.18% | –
2 | CCN(CC)CCCNC(=O)c1ccc2c(=O)n(CCc3ccccc3)c(=O)[nH]c2c1 | inactive: -22.7% | –
3 | CCOc1ccc(C(=O)Nc2ccc3nc(SCCOc4ccccc4)sc3c2)cc1 | inactive: -4.44% | –
4 | CCc1ccc(-n2cnc3cc(C(=O)NCc4ccc(C)cc4)ccc32)cc1 | inactive: 4.96% | –
5 | CCOC(=O)c1c(C)[nH]c(CCC(=O)NCc2ccc(CC)cc2)c1C | inactive: 0% | –
6 | CC(=O)c1cccc(NC(=O)Cn2nc(C)n3cccc3c2=O)c1 | inactive: -14.3% | –
7 | Cc1ccc(-n2ncc(C(=O)NCc3cccs3)c2C2CCN(C(=O)OC(C)(C)C)CC2)c(C)c1 | inactive: 6.77% | –
8 | CCC(Sc1nc2cc(OC)c(OC)cc2c2nc(-c3ccccc3)nn12)C(=O)Nc1cccc(C)c1 (configuration not stated) | inactive: -5.79% | –
9 | O=C(NCc1ccccc1Cl)c1ccc(CSCc2ccccc2Cl)o1 | inactive: 11.9% | –
10 | Cc1ccc(CSc2nnc(CCNC(=O)OC(C)(C)C)o2)cc1 | inactive: 2.85% | –
11 | COc1ccccc1OC(C)C(=O)Nc1ccc(-c2nc3ccccc3s2)cc1 (configuration not stated) | inactive: 1.41% | –
12 | CCc1ccc(NC(=O)CCn2nc(-c3ccccc3OC)c3c(C)cc(C)nc32)cc1 | inactive: -3.36% | –
13 | COc1ccc(NC(=O)CCn2c(=O)c3cccn3c3cccnc32)c(OC)c1 | inactive: -3.24% | –
14 | CCC(C(=O)NCc1ccccc1)n1nc(C)c2sc3ccccc3c2c1=O (configuration not stated) | inactive: -5.41% | –
15 | CN(Cc1ccccc1)C(=O)Nc1ccc2c(c1)N(C)C(=O)c1ccccc1S2 | inactive: -6.02% | –
16 | COc1ccc(-c2cc(C(=O)OC(C)C(=O)c3ccccc3)c3cccc(Cl)c3n2)cc1 (configuration not stated) | inactive: -11.1% | –
17 | c1ccc(Nc2c(-c3c[nH]c4ccccc34)nc3ccccn23)cc1 | inactive: -6.49% | –
18 | CC(C)Nc1ccc(-c2nc(-c3ccco3)no2)cc1[N+](=O)[O-] | inactive: 4.45% | –
19 | Cc1ccc(C2c3[nH]c4ccccc4c3CCN2C(=O)c2cccc(C)c2)cc1 (configuration not stated) | inactive: -8.22% | –
20 | CCOCCCNC(=O)C(c1ccc(C)cc1)N(Cc1ccc2c(c1)OCO2)C(=O)c1ccc(NC(C)=O)cc1 (configuration not stated) | inactive: 3.46% | –
21 | CCC(C)NC(=O)c1ccccc1NC(=O)CN1C(=O)c2cccc3cccc1c23 (configuration not stated) | inactive: 13.5% | –
22 | COc1cc2cc(CNc3ccc(C)cc3)c(=O)n(CC(=O)Nc3ccc(F)cc3F)c2cc1OC | – | active: 5.21 µM
23 | COc1cc(C(=O)NCC(c2cccs2)S(=O)(=O)c2ccc(F)cc2)cc(OC)c1OC (configuration not stated) | inactive: -1.72% | –
24 | CC(C)NC(=O)CN1C(=O)COc2ccc(S(=O)(=O)N3CCCCCC3)cc21 | inactive: -10.1% | –

Row | SMILES | activity change, negative = inhibition | Potency
25 | CCOC(=O)c1c(C)[nH]c(CCC(=O)Nc2ccc(C)c(F)c2)c1C | inactive: -1.45% | –
26 | Cc1cccc(OCC(=O)Nc2ccc(Cl)c(-c3nc4ncccc4o3)c2)c1C | inactive: -1.83% | –
27 | Cc1cccc(NC(=O)c2nnn(CC(=O)Nc3ccc(C(C)C)cc3)c2N)c1C | inactive: 7.43% | –
28 | CCC(=O)N1CCc2cc(Br)cc(S(=O)(=O)CCC(=O)NCc3ccc(Cl)cc3)c21 | inactive: 0.223% | –
29 | Cc1nc(Oc2ccc(F)cc2Cl)c2oc3ccccc3c2n1 | inactive: 0.349% | –
30 | CCOc1ccccc1NC(=O)CN(C)S(=O)(=O)c1ccc2nc(C)sc2c1 | inactive: -0.339% | –
31 | Cc1ccc(NC(=O)CCc2nnc3n(C)c(=O)c4sccc4n23)cc1C | inactive: 1.41% | –
32 | CSC1=NC2(CCN(C(=O)NC3CCCCC3)CC2)N=C1c1ccc(C)c(C)c1 | inactive: 0.0621% | –
33 | Cc1ccc(CNC(=O)CC(C)S(=O)(=O)c2cc3c(cc2C)NC(=O)CO3)cc1 (configuration not stated) | inactive: 1.16% | –
34 | CC(C)Oc1ccc(C(=O)N(Cc2ccco2)c2ccccn2)cc1 | inactive: -21.1% | –
35 | Cc1ccc(C)c(NC(=O)CN2C(=O)C(C)(C)c3ccccc32)c1 | inactive: -2.05% | –
36 | O=C(Nc1sc2c(c1C(=O)NCc1ccco1)CCCC2)c1cc(=O)c2ccccc2o1 | inactive: 0.16% | –
37 | COc1ccc(Br)cc1CNC(=O)c1cc2n(n1)CCCN(Cc1ccc(C)cc1)C2=O | inactive: 0% | –
38 | CCc1ccc(CN(Cc2ccco2)c2cnc(S(C)(=O)=O)nc2C(=O)Nc2ccccc2Cl)cc1 | inactive: -8.84% | –
39 | COC(=O)c1scc(-c2ccc(C)cc2)c1S(=O)(=O)N1CCN(c2cccc(OC)c2)CC1 | inactive: 1.44% | –
40 | CCc1nnc(SC(CC)C(=O)Nc2cccc(OC)c2)c2cc3oc(C)cc3n12 (configuration not stated) | inactive: -14.3% | –
41 | Cc1ccc(Sc2c(C)nn(C(C)(C)C)c2OC(=O)C(C)(C)C)cc1 | inactive: -2.88% | –
42 | O=C(NCc1ccco1)c1ccc2c(c1)N(Cc1ccc(Cl)cc1)C(=O)c1ccccc1S2=O (configuration not stated) | inactive: -0.652% | –
43 | Cc1ccc(NC(=O)Nc2ccc3snnc3c2)cc1C | inactive: -9.8% | –
44 | CCN(c1ccccc1)c1nnc(NC(=O)Nc2ccccc2F)s1 | inactive: -0.121% | –
45 | Cc1ccc2c(=O)cc(C(=O)Nc3sc4c(c3C(=O)NCc3ccco3)CCCC4)oc2c1C | inactive: -3.62% | –
46 | CCc1ccc(CNC(=O)c2nn(-c3ccc(C)c(C)c3)nc2CO)cc1 | inactive: -0.683% | –
47 | CCC(C)NC(=O)Cn1ncc2c(C)n(Cc3ccc(F)cc3)c(C)c2c1=O (configuration not stated) | inactive: -7.45% | –
